# Measured values taken from PubChem BioAssay AID1508623 (National Center for Advancing Translational Sciences (NCATS), 2021).
# The campaign covered roughly 48,000 compounds. About 450 (0.94%) were called active. Inconclusive means that the source gave no clear call. Such entries were picked first, then a sample of the others. The call rests on the fitted dose curve; in most records, active means well fitted inhibition curve with a large enough effect; inconclusive means small, poorly fitted or top-dose-only effect; inactive means no such curve, though single readings can be large or run the other way. Where the call is inconclusive, the potency comes from a doubtful curve fit.
# Experiment: Primary qHTS for Identification of Small Molecule Inhibitors of Huntingtin Promoter Activity; further: nearly all actives have a fitted effect of over 50% in size
# Details: HEK293 HTT promoter firefly luciferase reporter (activity 0% = vehicle and -100% = no light), 24 h; activity change, negative = inhibition: at 57.5 µM (top of the series)
# Procedure, shortened: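 HEK293 luciferase promoter-reporter cells (2,500/well) plated 24 h, then compounds added at up to 57.5 uM final for 24 h at 37 °C. Firefly luminescence by Dual-Glo, normalized to vehicle (0%) and zero RLU (-100%).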
# Potency means the concentration at half of the fitted maximal effect; tags describe the fitted curve by direction and shape.
Structure (SMILES),Potency,"activity change, negative = inhibition"
Cc1ccc(C)c(NC(=O)Nc2cc3c(cc2N2CCCCC2)n(C)c(=O)n3C)c1,"inconclusive: 39.8 µM [inhibitor, single point]",–
COc1ccccc1C(=O)Nc1nnc(SCc2cc(=O)c3ccccc3[nH]2)s1,"inconclusive: 14.1 µM [inhibitor, partial curve, poor fit]",–
Cc1ccc(-n2c(=O)c3ccc(C(=O)NCc4ccco4)cc3n(Cc3ccccc3Cl)c2=O)cc1,–,inactive: -11.6%
CCS(=O)(=O)c1ncc(Cl)c(C(=O)Nc2ccc(S(=O)(=O)N(C)c3ccccc3)cc2)n1,"inconclusive: 25.1 µM [inhibitor, partial curve, poor fit]",–
Cc1cccc(C)c1Nc1sc(C(=O)c2ccccc2)c(N)c1S(=O)(=O)c1ccccc1,"inconclusive: 11.2 µM [inhibitor, partial curve]",–
COc1ccc(Cn2c(SCC(=O)N3CCN(c4ccc(F)cc4)CC3)nc3ccccc32)cc1,"inconclusive: 28.2 µM [inhibitor, single point]",–
Cc1ccc2scc(N3CCCCC3C)c(=O)c2c1 (configuration not stated),–,inactive: 9%
COCCNC(=O)Cn1c(-c2cccs2)cc2cc(Cl)ccc21,"inconclusive: 31.6 µM [inhibitor, partial curve, poor fit]",–
CCc1ccccc1NC(=O)CN(c1ccccc1OC)S(=O)(=O)c1ccc(C)cc1,"inconclusive: 28.2 µM [inhibitor, partial curve, poor fit]",–
Cc1ccccc1C(=O)Nc1cccc(NC(=O)c2ccc(C(C)(C)C)cc2)c1,–,inactive: -11.5%
CC(C)(C)c1cc(C=O)cc(C(C)(C)C)c1O,–,inactive: 1.98%
CCOC(=O)c1scc(-c2ccccc2)c1S(=O)(=O)Nc1ccccc1OC,"inconclusive: 35.5 µM [inhibitor, single point]",–
O=C1c2[nH]nc(-c3ccccc3O)c2C(c2cccc(OCc3ccccc3)c2)N1CCCO (configuration not stated),"inconclusive: 28.2 µM [inhibitor, single point]",–
COc1ccc(Cn2c(SCc3ccc(C(=O)NC4CCCCC4)cc3)nc3ccncc32)cc1,"inconclusive: 22.4 µM [inhibitor, partial curve, poor fit]",–
CCNc1cc(NC2CCC(O)CC2)nc(Nc2ccc3c(ccn3Cc3ccccc3)c2)n1 (configuration not stated),–,inactive: -19.6%
CCc1cccc(NC(=O)c2cnc(N3CCOCC3)c3ccccc23)c1,"inconclusive: 17.8 µM [inhibitor, partial curve, poor fit]",–
Cc1c(C(=O)N2CCCC2)oc2c1-c1nn(CC(=O)NCc3ccc(OC(C)C)cc3)cc1CC2,"inconclusive: 39.8 µM [inhibitor, single point]",–
